# From the RNAGym collection of RNA variant scans (doi:10.7554/elife.90254)
# Read counts are not given, so values of variants with three or more changes are uncertain.
# B1: LINE1-mini (parent)
# chain: GGCAGAGCUCAACACAGCGUGGCAAAGUGGCUGUGGCUAGACUGCC
# Variants of: B1
# Experiment: self-cleavage, relative activity (ratio to wild type); higher = more cleavage; in vitro, sequencing; the parent is a self-cleaving ribozyme
row,Variant,self-cleavage
1,GGCAGAGCUCAACACAGCGUGGUAAAGUGGCUGUUGCUAUACUGUC [C23U G35U G40U C45U],0.13
2,GGCAGAGCUCAACACAGCGUGGUAAAGUGGCUGUUGCUAGACUACC [C23U G35U G44A],0
3,GGCAGAGCUCAACACAGCGUGGUAAAGUGGCUGUGAGUAGACUGCC [C23U G36A C37G],0.04
4,GGCAGAGCUCAACACAGCGUGGUAAAGUGGCUGUGACUAGAGUGCC [C23U G36A C42G],0.05
5,GGCAGAGCUCAACACAGCGUGGUAAAGUGGCUGUGUCGAGACUGCC [C23U G36U U38G],0.01
6,GGCAGAGCUCAACACAGCGUGGUAAAGUGGCUGUGGCUACACUGCA [C23U G40C C46A],0.01
7,GGCAGAGCUCAACACAGCGUGGUAAAGUGGCUGUGGCUACACUCCC [C23U G40C G44C],0.02
8,GGCAGAGCUCAACACAGCGUGGUAAAGAGGCUGUGGCUAGACUGAC [C23U U28A C45A],0.39
9,GGCAGAGCUCAACACAGCGUGGUAAAGAGGCUGUGGCUAGACCGCC [C23U U28A U43C],0
10,GGCAGAGCUCAACACAGCGUGGUAAAGCGGCUGUGGCUAGUCUGCC [C23U U28C A41U],0.22
11,GGCAGAGCUCAACACAGCGUGGUAAAGCGGCUGUGGCUAGAUUGCC [C23U U28C C42U],0.34
12,GGCAGAGCUCAACACAGCGUGGUAAAGCGGCUGUGGCUAGACUGAC [C23U U28C C45A],0.2
13,GGCAGAGCUCAACACAGCGUGGUAAAGCGGCUGUGGCUAGACUGGC [C23U U28C C45G],0.61
14,GGCAGAGCUCAACACAGCGUGGUAAAGCGGCUGUGGCUAGACUGCA [C23U U28C C46A],1.23
15,GGCAGAGCUCAACACAGCGUGGUAAAGCGGCUGUGGCGAGACUGCC [C23U U28C U38G],0.01
16,GGCAGAGCUCAACACAGCGUGGUAAAGGGCCUGUGGCCAGACAGUC [C23U U28G G30C U38C U43A C45U],0.05
17,GGCAGAGCUCAACACAGCGUGGUAAAGGGGCUGUGGCUAGACUACC [C23U U28G G44A],0.05
18,GGCAGAGCUCAACACAGCGUGGUAAAGUGGCAAUGGCUAGACUGCC [C23U U32A G33A],0.05
19,GGCAGAGCUCAACACAGCGUGGUAAAGUGGCCGUGGCUACACUGCC [C23U U32C G40C],0.1

row,Variant,self-cleavage
1,GGCAGAGCUCAACACAGCGUGGUAAAGUGGCGGUGGGUAGACUGAG [C23U U32G C37G C45A C46G],0.03
2,GGCAGAGCUCAACACAGCGUGGUAAAGUGGCGCAGGCUAGACUGCC [C23U U32G G33C U34A],0.03
3,GGCAGAGCUCAACACAGCGUGGUAAAGUGGCUGAGGCUAGUCUGCC [C23U U34A A41U],0.07
4,GGCAGAGCUCAACACAGCGUGGUAAAGUGGCUGAGGCUAAACUGCC [C23U U34A G40A],0.07
5,GGCAGAGCUCAACACAGCGUGGUAAAGUGGCUGGGGCUACAAUGCC [C23U U34G G40C C42A],0.12
6,GGCAGAGCUCAACACAGCGUGGUAAAGUGGCUGGGGCCAGACUGCC [C23U U34G U38C],0
7,GGCAGAGCUCAACACAGCGUGGUAAAGUGGCUGUGGCCAGAUUGCC [C23U U38C C42U],0.09
8,GGCAGAGCUCAACACAGCGUGGCCUAGUGGCUGUGGCUAGCCUGCC [A24C A25U A41C],0.06
9,GGCAGAGCUCAACACAGCGUGGCCUAGUAGCUGUGGCUAGACUGCC [A24C A25U G29A],0.61
10,GGCAGAGCUCAACACAGCGUGGCCUAGUGGCUUUGGCUAGACGGUC [A24C A25U G33U U43G C45U],0.03
11,GGCAGAGCUCAACACAGCGUGGCCACGUGGCUGUGGCUUGACUGCC [A24C A26C A39U],0.14
12,GGCAGAGCUCAACACAGCGUGGCCACGUGGUUGUGGCUAGACUGCC [A24C A26C C31U],0.08
13,GGCAGAGCUCAACACAGCGUGGCCACGUGGCUGUGGCUAGACUCCC [A24C A26C G44C],0.05
14,GGCAGAGCUCAACACAGCGUGGCCAGGUGGCUGUGGCUAGACUGUC [A24C A26G C45U],0.05
15,GGCAGAGCUCAACACAGCGUGGCCAGUUGGCGGUGGCUAAACCGCC [A24C A26G G27U U32G G40A U43C],0
16,GGCAGAGCUCAACACAGCGUGGCCAGGUGGCUAUGGCUAGACUCCC [A24C A26G G33A G44C],0.06
17,GGCAGAGCUCAACACAGCGUGGCCAGGUGGCUGUGGCUAAAGUGCC [A24C A26G G40A C42G],0.02
18,GGCAGAGCUCAACACAGCGUGGCCAGGUGGCUGUGGCUAGACUCCC [A24C A26G G44C],0.27
19,GGCAGAGCUCAACACAGCGUGGCCAUGUGGCUGUGGGUAGAGUACC [A24C A26U C37G C42G G44A],0.01

row,Variant,self-cleavage
1,GGCAGAGCUCAACACAGCGUGGCCAUGUCGCUGGGGCGAGACUGCC [A24C A26U G29C U34G U38G],0.02
2,GGCAGAGCUCAACACAGCGUGGCCAUGUGGCUGUGGCCUGACUGCC [A24C A26U U38C A39U],0.17
3,GGCAGAGCUCAACACAGCGUGGCCAAGUGGCUGUGGCUCGACUACC [A24C A39C G44A],0.05
4,GGCAGAGCUCAACACAGCGUGGCCAAGUGGCUGUGGCUUGACCGCC [A24C A39U U43C],0
5,GGCAGAGCUCAACACAGCGUGGCCAAGUGGAUGUGGCUAGAGUGCC [A24C C31A C42G],0.09
6,GGCAGAGCUCAACACAGCGUGGCCAAGUGGAUGUGGCAAGUCUGCC [A24C C31A U38A A41U],0.06
7,GGCAGAGCUCAACACAGCGUGGCCAAGUGGGUGUGGCUAGACUGCA [A24C C31G C46A],0.07
8,GGCAGAGCUCAACACAGCGUGGCCAAGUGGGUGUGGCUAGACUUCC [A24C C31G G44U],0.01
9,GGCAGAGCUCAACACAGCGUGGCCAAGUGGGGGUGGCUAGACUGCC [A24C C31G U32G],0.02
10,GGCAGAGCUCAACACAGCGUGGCCAAGUGGUUGUGGCUAGACUGCG [A24C C31U C46G],0.04
11,GGCAGAGCUCAACACAGCGUGGCCAAGUGGCUGUGGGUAGACUGCA [A24C C37G C46A],0.02
12,GGCAGAGCUCAACACAGCGUGGCCAAGUGGCUGUGGUUGGACUGCC [A24C C37U A39G],0
13,GGCAGAGCUCAACACAGCGUGGCCAAGUGGCUGUGGCUAGAUUGCA [A24C C42U C46A],0.01
14,GGCAGAGCUCAACACAGCGUGGCCAAGUGGCUGUGGCUAGACUGAA [A24C C45A C46A],0.03
15,GGCAGAGCUCAACACAGCGUGGCCAAGUGGCUGUGGCUAGACUGGU [A24C C45G C46U],0.03
16,GGCAGAGCUCAACACAGCGUGGCCAAAUGGCUGUGGGUAGACUGCC [A24C G27A C37G],0.03
17,GGCAGAGCUCAACACAGCGUGGCCAAAUGGCUGUGACUAGACUGCC [A24C G27A G36A],0.06
18,GGCAGAGCUCAACACAGCGUGGCCAACUGGCUGUAGCUAAACUGCC [A24C G27C G35A G40A],0.03
